In one experiment the test system is cowpox Brighton. Kind of experiment: organism not typed. The note with it: HFF, read-out: Cowpox EC50, cowpox Brighton, plaque reduction assay in HFF cells. On the technique in general: Plaque reduction counts the foci of infection that form in a cell layer.
For the next experiment, the system named is vaccinia WR. The experiment can be described thus: microbe, parasite or virus in culture. The note with it: Orthopoxvirus vaccinia, HFF, read-out: Vaccinia EC50, vaccinia WR, plaque reduction assay in HFF cells.
Another experiment deals with HCMV AD169. Kind of experiment: HCMV AD169 plaque reduction assay in HFF cells. The following applies: Human betaherpesvirus 5.

Molecules are shown by their SMILES. Bounds are passed on as bounds.

As for `CCCCCCCCCCCCCCCCOCCCOP(=O)(O)CC/C=C\Cn1cnc2c(N)ncnc21` [HDP-PPen-A], the EC50 was over 20 µM in the experiment with cowpox Brighton, 39.4 µM with vaccinia WR and over 20 µM in the experiment with HCMV AD169.
Regarding `CCCCCCCCCCCCCCCCOCCCOP(=O)(O)CC/C=C\Cn1ccc(=O)[nH]c1=O` [HDP-PPen-U, (3Z)-3-(hexadecyloxy)propyl hydrogen 5-(3,4-dihydro-2,4-dioxopyrimidin-1(2H)-yl)pent-3-enylphosphonate], the EC50 is over 100 µM in the experiment with cowpox Brighton, over 100 µM in the experiment with vaccinia WR and over 20 µM in the experiment on HCMV AD169.
`Nc1nc2c(ncn2CC=CCCP(=O)(O)O)c(=O)[nH]1` [PPen-G, 9-(5-Phosphono-pent-2-en-1-yl)-guanine]: the values for the half-maximal effective concentration (EC50) in the experiment with cowpox Brighton, in the experiment on vaccinia WR and in the experiment on HCMV AD169 were over 100 µM, over 100 µM and 68.4 µM, respectively.
For the compound `Nc1ccn(CC=CCCP(=O)(O)O)c(=O)n1` [PPen-C, 1-(5-Phosphono-pent-2-en-1-yl)cytosine], the EC50 with cowpox Brighton, in the experiment on vaccinia WR and with HCMV AD169 was over 100 µM throughout.
Regarding `O=c1ccn(CC=CCCP(=O)(O)O)c(=O)[nH]1` [PPen-U, 1-(5-Phosphono-pent-2-en-1-yl)-uracil], the 50% effective concentration (EC50) in the experiment with cowpox Brighton, with vaccinia WR and in the experiment with HCMV AD169 was over 100 µM each time.
As to `Cc1cn(CC=CCCP(=O)(O)O)c(=O)[nH]c1=O` [PPen-T, 1-(5-Phosphono-pent-2-en-1-yl)-thymine], the concentration for a half-maximal effect (EC50) in the experiment with cowpox Brighton, in the experiment on vaccinia WR and with HCMV AD169 was over 100 µM each time.
In the case of `Nc1ncnc2c1ncn2CC=CCCP(=O)(O)O` [PPen-A, 9-(5-Phosphono-pent-2-en-1-yl)-adenine], the EC50 with cowpox Brighton, with vaccinia WR and in the experiment with HCMV AD169 was over 100 µM each time.
In turn, `CCCCCCCCCCCCCCCCOCCCOP(=O)(O)CC/C=C\Cn1cnc2c(=O)[nH]c(N)nc21` [HDP-PPen-G, (Z)-3-(hexadecyloxy)propyl hydrogen 5-(2-amino-6-oxo-1,6-dihydropurin-9-yl)pent-3-enylphosphonate] displayed a 50% effective concentration (EC50) in the experiment on HCMV AD169 of 0.73 µM.
Regarding `CCCCCCCCCCCCCCCCOCCCOP(=O)(O)CC/C=C\Cn1ccc(N)nc1=O` [HDP-PPen-C, (3Z)-3-(hexadecyloxy)propyl hydrogen 5-(4-amino-2-oxopyrimidin-1(2H)-yl)pent-3-enylphosphonate], the concentration for a half-maximal effect (EC50) with cowpox Brighton was over 20 µM; in the experiment with vaccinia WR, over 20 µM; with HCMV AD169 it was 2.9 µM.
Take `CCCCCCCCCCCCCCCCOCCCOP(=O)(O)CC/C=C\Cn1cc(C)c(=O)[nH]c1=O` [HDP-PPen-T]: the values for the half-maximal effective concentration (EC50) in the experiment on cowpox Brighton, in the experiment on vaccinia WR and in the experiment with HCMV AD169 were over 20 µM, over 20 µM and 0.64 µM, respectively.

Broadly, the EC50 is the concentration giving half of the maximal effect.
